Test results published in the supplement of paper PMC8728848.
The list shows a part of the results.

What was measured:
Assay in all cases: glycan array binding signal (z-score within array); higher = stronger binding
Conditions in all cases: glycan notation: IUPAC condensed, linker removed
[1] = target: GlcNAc(b1-2)Gal(b1-3)GalNAc
Summary of the method: (§1)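 The binding signal is a Z-score computed within each array and averaged over linkers. Arrays of the same protein sequence at different concentrations or buffers were also averaged together. Data originate from 3228 arrays in the Consortium for Functional Glycomics database, kept only where the protein sequence was available.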

[2] = target: GlcNAc(b1-2)Man(a1-3)[GlcNAc(b1-2)Man(a1-6)]Man(b1-4)GlcNAc(b1-4)GlcNAc
Summary of the method: as §1

[3] = target: GlcNAc(b1-2)Man(a1-3)[GlcNAc(b1-2)Man(a1-6)]Man(b1-4)GlcNAc(b1-4)[Fuc(a1-6)]GlcNAc
Summary of the method: as §1

[4] = target: GlcNAc(b1-2)Man(a1-3)[GlcNAc(b1-4)][GlcNAc(b1-2)Man(a1-6)]Man(b1-4)GlcNAc(b1-4)GlcNAc
Summary of the method: as §1

[5] = target: GlcNAc(b1-2)Man(a1-3)[GlcNAc(b1-4)][GlcNAc(b1-2)Man(a1-6)]Man(b1-4)GlcNAc(b1-4)[Fuc(a1-6)]GlcNAc
Summary of the method: as §1

[6] = target: GlcNAc(b1-2)[GlcNAc(b1-4)]Man(a1-3)[GlcNAc(b1-2)Man(a1-6)]Man(b1-4)GlcNAc(b1-4)GlcNAc
Summary of the method: as §1

[7] = target: GlcNAc(b1-2)[GlcNAc(b1-4)]Man(a1-3)[GlcNAc(b1-4)][GlcNAc(b1-2)Man(a1-6)]Man(b1-4)GlcNAc(b1-4)GlcNAc
Summary of the method: as §1

[8] = target: GlcNAc(b1-2)[GlcNAc(b1-4)]Man(a1-3)[GlcNAc(b1-4)][GlcNAc(b1-2)[GlcNAc(b1-6)]Man(a1-6)]Man(b1-4)GlcNAc(b1-4)GlcNAc
Summary of the method: as §1

[9] = target: GlcNAc(b1-2)[GlcNAc(b1-4)]Man(a1-3)[GlcNAc(b1-4)][GlcNAc(b1-2)[GlcNAc(b1-6)]Man(a1-6)]Man(b1-4)GlcNAc(b1-4)[Fuc(a1-6)]GlcNAc
Summary of the method: as §1

[10] = target: GlcNAc(b1-2)[GlcNAc(b1-6)]Man(a1-6)[GlcNAc(b1-2)Man(a1-3)]Man(b1-4)GlcNAc(b1-4)GlcNAc
Summary of the method: as §1

[11] = target: GlcNAc(b1-2)[GlcNAc(b1-6)]Man(a1-6)[GlcNAc(b1-2)Man(a1-3)]Man(b1-4)GlcNAc(b1-4)[Fuc(a1-6)]GlcNAc
Summary of the method: as §1

[12] = target: GlcNAc(b1-2)[GlcNAc(b1-6)]Man(a1-6)[GlcNAc(b1-4)][GlcNAc(b1-2)Man(a1-3)]Man(b1-4)GlcNAc(b1-4)GlcNAc
Summary of the method: as §1

GlcNAc(b1-3)Fuc = target: GlcNAc(b1-3)Fuc
Summary of the method: as §1

GlcNAc(b1-3)Gal = target: GlcNAc(b1-3)Gal
Summary of the method: as §1

[13] = target: GlcNAc(b1-3)Gal(b1-3)GalNAc
Summary of the method: as §1

GlcNAc(b1-3)Gal(b1-4)Glc = target: GlcNAc(b1-3)Gal(b1-4)Glc
Summary of the method: as §1

[14] = target: GlcNAc(b1-3)Gal(b1-4)GlcNAc
Summary of the method: as §1

[15] = target: GlcNAc(b1-3)Gal(b1-4)GlcNAc(b1-2)Man(a1-3)[GlcNAc(b1-3)Gal(b1-4)GlcNAc(b1-2)Man(a1-6)]Man(b1-4)GlcNAc(b1-4)GlcNAc
Summary of the method: as §1

[16] = target: GlcNAc(b1-3)Gal(b1-4)GlcNAc(b1-2)Man(a1-3)[GlcNAc(b1-3)Gal(b1-4)GlcNAc(b1-2)Man(a1-6)]Man(b1-4)GlcNAc(b1-4)[Fuc(a1-6)]GlcNAc
Summary of the method: as §1

[17] = target: GlcNAc(b1-3)Gal(b1-4)GlcNAc(b1-2)[GlcNAc(b1-3)Gal(b1-4)GlcNAc(b1-6)]Man(a1-6)[GlcNAc(b1-3)Gal(b1-4)GlcNAc(b1-2)Man(a1-3)]Man(b1-4)GlcNAc(b1-4)GlcNAc
Summary of the method: as §1

[18] = target: GlcNAc(b1-3)Gal(b1-4)GlcNAc(b1-3)Gal(b1-4)GlcNAc
Summary of the method: as §1

[19] = target: GlcNAc(b1-3)Gal(b1-4)GlcNAc(b1-3)Gal(b1-4)GlcNAc(b1-2)Man(a1-3)[GlcNAc(b1-3)Gal(b1-4)GlcNAc(b1-3)Gal(b1-4)GlcNAc(b1-2)Man(a1-6)]Man(b1-4)GlcNAc(b1-4)GlcNAc
Summary of the method: as §1

[20] = target: GlcNAc(b1-3)Gal(b1-4)GlcNAc(b1-3)Gal(b1-4)GlcNAc(b1-2)Man(a1-3)[GlcNAc(b1-3)Gal(b1-4)GlcNAc(b1-3)Gal(b1-4)GlcNAc(b1-2)Man(a1-6)]Man(b1-4)GlcNAc(b1-4)[Fuc(a1-6)]GlcNAc
Summary of the method: as §1

[21] = target: GlcNAc(b1-3)Gal(b1-4)GlcNAc(b1-3)Gal(b1-4)GlcNAc(b1-2)[GlcNAc(b1-3)Gal(b1-4)GlcNAc(b1-3)Gal(b1-4)GlcNAc(b1-6)]Man(a1-6)[GlcNAc(b1-3)Gal(b1-4)GlcNAc(b1-3)Gal(b1-4)GlcNAc(b1-2)Man(a1-3)]Man(b1-4)GlcNAc(b1-4)[Fuc(a1-6)]GlcNAc
Summary of the method: as §1

[22] = target: GlcNAc(b1-3)Gal(b1-4)GlcNAc(b1-3)Gal(b1-4)GlcNAc(b1-3)Gal(b1-4)GlcNAc(b1-2)Man(a1-3)[GlcNAc(b1-3)Gal(b1-4)GlcNAc(b1-3)Gal(b1-4)GlcNAc(b1-3)Gal(b1-4)GlcNAc(b1-2)Man(a1-6)]Man(b1-4)GlcNAc(b1-4)GlcNAc
Summary of the method: as §1

[23] = target: GlcNAc(b1-3)Gal(b1-4)GlcNAc(b1-3)Gal(b1-4)GlcNAc(b1-3)Gal(b1-4)GlcNAc(b1-2)Man(a1-3)[GlcNAc(b1-3)Gal(b1-4)GlcNAc(b1-3)Gal(b1-4)GlcNAc(b1-3)Gal(b1-4)GlcNAc(b1-2)Man(a1-6)]Man(b1-4)GlcNAc(b1-4)[Fuc(a1-6)]GlcNAc
Summary of the method: as §1

[24] = target: GlcNAc(b1-3)Gal(b1-4)GlcNAc(b1-3)Gal(b1-4)GlcNAc(b1-3)Gal(b1-4)GlcNAc(b1-2)[GlcNAc(b1-3)Gal(b1-4)GlcNAc(b1-3)Gal(b1-4)GlcNAc(b1-3)Gal(b1-4)GlcNAc(b1-6)]Man(a1-6)[GlcNAc(b1-3)Gal(b1-4)GlcNAc(b1-3)Gal(b1-4)GlcNAc(b1-3)Gal(b1-4)GlcNAc(b1-2)Man(a1-3)]Man(b1-4)GlcNAc(b1-4)[Fuc(a1-6)]GlcNAc
Summary of the method: as §1

[25] = target: GlcNAc(b1-3)Gal(b1-4)GlcNAc(b1-3)Gal(b1-4)GlcNAc(b1-3)Gal(b1-4)GlcNAc(b1-3)Gal(b1-4)GlcNAc(b1-2)Man(a1-3)[GlcNAc(b1-3)Gal(b1-4)GlcNAc(b1-3)Gal(b1-4)GlcNAc(b1-3)Gal(b1-4)GlcNAc(b1-3)Gal(b1-4)GlcNAc(b1-2)Man(a1-6)]Man(b1-4)GlcNAc(b1-4)GlcNAc
Summary of the method: as §1

[26] = target: GlcNAc(b1-3)Gal(b1-4)GlcNAc(b1-3)Gal(b1-4)GlcNAc(b1-3)Gal(b1-4)GlcNAc(b1-3)Gal(b1-4)GlcNAc(b1-2)Man(a1-3)[GlcNAc(b1-3)Gal(b1-4)GlcNAc(b1-3)Gal(b1-4)GlcNAc(b1-3)Gal(b1-4)GlcNAc(b1-3)Gal(b1-4)GlcNAc(b1-2)Man(a1-6)]Man(b1-4)GlcNAc(b1-4)[Fuc(a1-6)]GlcNAc
Summary of the method: as §1

[27] = target: GlcNAc(b1-3)Gal(b1-4)GlcNAc(b1-3)Gal(b1-4)GlcNAc(b1-3)Gal(b1-4)GlcNAc(b1-3)Gal(b1-4)GlcNAc(b1-2)[GlcNAc(b1-3)Gal(b1-4)GlcNAc(b1-3)Gal(b1-4)GlcNAc(b1-3)Gal(b1-4)GlcNAc(b1-3)Gal(b1-4)GlcNAc(b1-6)]Man(a1-6)[GlcNAc(b1-3)Gal(b1-4)GlcNAc(b1-3)Gal(b1-4)GlcNAc(b1-3)Gal(b1-4)GlcNAc(b1-3)Gal(b1-4)GlcNAc(b1-2)Man(a1-3)]Man(b1-4)GlcNAc(b1-4)[Fuc(a1-6)]GlcNAc
Summary of the method: as §1

B1: Pa IMPa (Pseudomonas aeruginosa), Q9I5W4 (protein)
chain: MSLSTTAFPSLQGENMSRSPIPRHRALLAGFCLAGALSAQAATQEEILDAALVSGDSSQLTDSHLVALRLQQQVERIRQTRTQLLDGLYQNLSQAYDPGAASMWVLPANPDNTLPFLIGDKGRVLASLSLEAGGRGLAYGTNVLTQLSGTNAAHAPLLKRAVQWLVNGDPGAATAKDFKVSVVGVDKTAALNGLKSAGLQPADAACNALTDASCASTSKLLVLGNGASAASLSATVRARLQAGLPILFVHTNGWNQSSTGQQILAGLGLQEGPYGGNYWDKDRVPSSRTRTRSVELGGAYGQDPALVQQIVDGSWRTDYDWSKCTSYVGRTTCDDVPGLSDFSKRVDVLKGALDAYNQKAQNLFALPGTTSLRLWLLWADAVRQNIRYPMDKAADTARFQETFVADAIVGYVREAGAAQKELGSYAGQRQQSMPVSGSEETLTLTLPSAQGFTAIGRMAAPGKRLSIRIEDAGQASLAVGLNTQRIGSTRLWNTRQYDRPRFLKSPDIKLQANQSVALVSPYGGLLQLVYSGATPGQTVTVKVTGAASQPFLDIQPGEDSSQAIADFIQALDADKADWLEIRSGSVEVHAKVEKVRGSIDKDYGGDVQRFIRELNEVFIDDAYTLAGFAIPNQAKTPAIQQECAARGWDCDSETLHKLPGTQHINVDQYAQCGGGCSGNPYDQTWGLNPRGWGESHELGHNLQVNRLKVYGGRSGEISNQIFPLHKDWRVLREFGQNLDDTRVNYRNAYNLIVAGRAEADPLAGVYKRLWEDPGTYALNGERMAFYTQWVHYWADLKNDPLQGWDIWTLLYLHQRQVDKSDWDANKAALGYGTYAQRPGNSGDASSTDGNDNLLLGLSWLTQRDQRPTFALWGIRTSAAAQAQVAAYGFAEQPAFFYANNRTNEYSTVKLLDMSQGSPAWPFP
Q: How did the “glycan array binding signal (z-score)” value [1] turn out when B1 was run?
A: Its value is -0.639.

Q: What about the “glycan array binding signal (z-score)” value [2] of the same binder?
A: The value was 0.017.

Q: And the “glycan array binding signal (z-score)” value [3]?
A: The value was 0.384.

Q: What about the “glycan array binding signal (z-score)” value [4] of the same binder?
A: The value was 0.309.

Q: What about the “glycan array binding signal (z-score)” value [5] of the same binder?
A: The value was 0.448.

Q: And the “glycan array binding signal (z-score)” value [6]?
A: Its value is 0.309.

Q: And the “glycan array binding signal (z-score)” value [7]?
A: The value was 0.103.

Q: What about the “glycan array binding signal (z-score)” value [8] of the same binder?
A: The value was -0.126.

Q: And the “glycan array binding signal (z-score)” value [9]?
A: Its value is 1.41.

Q: And the “glycan array binding signal (z-score)” value [10]?
A: The value was 0.261.

Q: And the “glycan array binding signal (z-score)” value [11]?
A: The value was -0.04.

Q: And the “glycan array binding signal (z-score)” value [12]?
A: Its value is -0.318.

Q: And the “glycan array binding signal (z-score)” value (GlcNAc(b1-3)Fuc)?
A: The value was 1.37.

Q: What about the “glycan array binding signal (z-score)” value (GlcNAc(b1-3)Gal) of the same binder?
A: Its value is -0.457.

Q: What about the “glycan array binding signal (z-score)” value [13] of the same binder?
A: The value was -0.376.

Q: And the “glycan array binding signal (z-score)” value (GlcNAc(b1-3)Gal(b1-4)Glc)?
A: Its value is -0.08.

Q: What about the “glycan array binding signal (z-score)” value [14] of the same binder?
A: The value was -0.489.

Q: And the “glycan array binding signal (z-score)” value [15]?
A: Its value is -0.372.

Q: What about the “glycan array binding signal (z-score)” value [16] of the same binder?
A: Its value is 0.045.

Q: What about the “glycan array binding signal (z-score)” value [17] of the same binder?
A: Its value is 0.568.

Q: And the “glycan array binding signal (z-score)” value [18]?
A: Its value is -0.315.

Q: What about the “glycan array binding signal (z-score)” value [19] of the same binder?
A: The value was -0.305.

Q: What about the “glycan array binding signal (z-score)” value [20] of the same binder?
A: Its value is -0.061.

Q: What about the “glycan array binding signal (z-score)” value [21] of the same binder?
A: The value was 0.607.

Q: What about the “glycan array binding signal (z-score)” value [22] of the same binder?
A: The value was -0.522.

Q: And the “glycan array binding signal (z-score)” value [23]?
A: The value was -0.177.

Q: And the “glycan array binding signal (z-score)” value [24]?
A: Its value is -0.116.

Q: What about the “glycan array binding signal (z-score)” value [25] of the same binder?
A: The value was -0.526.

Q: And the “glycan array binding signal (z-score)” value [26]?
A: Its value is 7.78.

Q: And the “glycan array binding signal (z-score)” value [27]?
A: Its value is 0.125.
